In PubChem BioAssay AID624255 (Broad Institute, 2012):
The campaign covered roughly 77,000 compounds. About 4,600 (6%) were called active. The shares of active, inactive and inconclusive entries below differ from those in the screen.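 Rule for the calls: active = mean inhibition above about 93%, with at least 55% of replicates each passing it (limit read from the data, passing the limit was not always enough); inconclusive = only one of those two conditions holds; inactive = neither condition holds.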

Assay: T. cruzi intracellular proliferation inhibitors, primary screen, cell-based, beta-gal Tulahuen parasites, NIH3T3 host, luminescence (AID 624255)
Settings: T. cruzi beta-gal in NIH3T3, GalScreen luminescence, 90 h; at 8.34 µM; active compounds read high

| SMILES | inhibition |
| --- | --- |
| C[C@H](CO)N1C[C@H](C)[C@H](CN(C)C(=O)Nc2ccc(C(F)(F)F)cc2)OCCCC[C@H](C)Oc2ccc(NS(=O)(=O)c3ccccc3)cc2C1=O | inconclusive: 94.1% |
| O=C(C[C@@H]1CC[C@H]2[C@@H](COC[C@H](O)CN2Cc2ccc3c(c2)OCO3)O1)Nc1ccc(-c2ccccc2)cc1 | inconclusive: 100% |
| C[C@H]1CN([C@@H](C)CO)C(=O)c2cccc(NC(=O)c3ccncc3)c2O[C@@H]1CN(C)Cc1ccc(-c2ccccc2)cc1 | inconclusive: 105% |
| C[C@H]1CCCCO[C@@H](CN(C)C(=O)Nc2ccc(C(F)(F)F)cc2)[C@@H](C)CN([C@@H](C)CO)C(=O)c2cc(NC(=O)CCC(F)(F)F)ccc2O1 | inconclusive: 93.8% |
| CC(C)C#Cc1ccc2c(c1)O[C@@H](CN(C)Cc1ccccn1)[C@H](C)CN([C@@H](C)CO)S2(=O)=O | inconclusive: 118% |
| O=C(NCCN1CCCCC1)[C@H]1[C@H](CO)[C@H]2Cn3c(cccc3=O)[C@@H]1N2C(=O)C1CCCCC1 | inactive: 36.5% |
| CN1c2ccc(-c3ccc(F)cc3)cc2[C@H]2[C@H](CCN2C(=O)Cc2cccnc2)[C@H]1CO | inconclusive: 95.4% |
| CO[C@@H]1CN(C)C(=O)c2cc(NC(=O)c3ccccc3F)ccc2OC[C@@H](C)N(C(=O)c2ccccc2F)C[C@H]1C | inconclusive: 100% |
| C[C@H]1CN([C@@H](C)CO)C(=O)Cc2cc(N(C)C)ccc2O[C@H]1CN(C)Cc1ccc(Oc2ccccc2)cc1 | inconclusive: 96.8% |
| COc1ccc(NC(=O)N2CC[C@@H]3[C@H]2c2cc(Br)ccc2N(C)[C@H]3CO)cc1 | inactive: 46.5% |
| C[C@@H]1CCCCO[C@@H](CN(C)Cc2ccccc2)[C@H](C)CN([C@H](C)CO)C(=O)c2cc(NC(=O)c3ccccc3)ccc2O1 | inconclusive: 95.4% |
| COc1ccc(NC(=O)Nc2ccc3c(c2)C(=O)N([C@H](C)CO)C[C@H](C)[C@H](CN(C)C(=O)Nc2ccc(OC)cc2)OCCCC[C@H](C)O3)cc1 | inconclusive: 95.1% |
| Cc1ccc(S(=O)(=O)N(C)C[C@H]2OCCCC[C@H](C)Oc3ccc(NS(=O)(=O)c4ccccc4)cc3C(=O)N([C@H](C)CO)C[C@H]2C)cc1 | inconclusive: 83.9% |
| Cn1cnc(CCNC(=O)C[C@H]2CC[C@@H]3[C@H](COC[C@H](O)CN3C(=O)Nc3ccc(C(F)(F)F)cc3)O2)c1 | inconclusive: 95.8% |
| C[C@@H]1CN([C@H](C)CO)C(=O)c2cc(NC(=O)c3ccncc3)ccc2O[C@@H](C)CCCCO[C@@H]1CN(C)Cc1ccc(C(F)(F)F)cc1 | active: 109% |
